Values joined by “and” are separate entries in the source; they are usually repeats but may differ in a detail not shown here. Identical values can stand only once. This list was built around the results that the source calls inconclusive (neither active nor inactive); the mix of calls is not that of the screen. For some of these results: Potencies beside an inconclusive call are fits to weak or partial responses and may not hold up. Active and inactive are the calls of the source. Unless noted, calls come from the whole dose curve; as a rule, active = well fitted curve in the direction sought with a large enough effect in the repeat runs; inconclusive = weak or mixed curves; inactive = no such curve, though single readings can be large; an effect the other way counts as inactive or inconclusive.
Columns and labels:
[1] = qHTS assay to identify aromatase inhibitors - cell viability counter screen (AID 743084); settings: MCF-7 aro ERE viability, CellTiter-Fluor, 24 h; activity change, negative = cytotoxicity: at 70.3 µM (top of the series);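 note: cells stimulated with testosterone during compound exposure; nearly all actives have a fitted effect of over 55% in size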
[2] = target: Aryl hydrocarbon receptor (Homo sapiens) (UniProt P35869); assay: qHTS assay to identify small molecule that activate the aryl hydrocarbon receptor (AhR) signaling pathway (AID 743085); note: nearly all actives have a fitted effect of over 15% in size
Sequence of UniProt P35869 (P35869 whole entry, looked up): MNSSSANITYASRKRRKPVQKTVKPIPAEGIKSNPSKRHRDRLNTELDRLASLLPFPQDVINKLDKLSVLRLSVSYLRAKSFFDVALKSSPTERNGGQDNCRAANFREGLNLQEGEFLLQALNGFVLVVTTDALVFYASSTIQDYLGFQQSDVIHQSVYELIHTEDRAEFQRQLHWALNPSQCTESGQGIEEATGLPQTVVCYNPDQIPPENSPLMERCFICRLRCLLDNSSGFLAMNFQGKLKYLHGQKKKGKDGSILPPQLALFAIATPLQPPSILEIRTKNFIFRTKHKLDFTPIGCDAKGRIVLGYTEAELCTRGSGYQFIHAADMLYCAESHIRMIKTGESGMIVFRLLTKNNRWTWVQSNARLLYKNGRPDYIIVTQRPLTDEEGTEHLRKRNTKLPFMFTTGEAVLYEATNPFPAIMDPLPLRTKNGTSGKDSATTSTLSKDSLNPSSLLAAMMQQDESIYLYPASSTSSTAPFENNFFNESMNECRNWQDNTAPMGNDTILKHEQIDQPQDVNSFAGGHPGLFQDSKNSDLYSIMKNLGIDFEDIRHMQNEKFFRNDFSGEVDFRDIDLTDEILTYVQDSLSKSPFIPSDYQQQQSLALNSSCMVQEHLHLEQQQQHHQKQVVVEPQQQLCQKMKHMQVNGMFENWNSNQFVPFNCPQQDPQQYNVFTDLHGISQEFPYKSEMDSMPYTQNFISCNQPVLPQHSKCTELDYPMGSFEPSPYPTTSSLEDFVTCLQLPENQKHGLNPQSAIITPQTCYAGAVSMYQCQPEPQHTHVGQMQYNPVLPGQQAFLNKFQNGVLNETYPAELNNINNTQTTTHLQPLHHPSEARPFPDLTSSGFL
Procedure, shortened: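 HepG2 cells (HG2L7.5c1) stably carrying a firefly luciferase reporter driven by 20 dioxin responsive elements were exposed to compound for 24 h at 37C after a 5 h settling period; luminescence rise (ONE-Glo) indicated activation.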

[3] = qHTS assay to identify small molecule that activate the aryl hydrocarbon receptor (AhR) signaling pathway - cell viability counter screen (AID 743086); note: nearly all actives have a fitted effect of over 45% in size
Procedure, shortened: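 HepG2-AhR-luc (HG2L7.5c1) cells, 4000/well, treated 24 h at 37 C with compound; viability measured as CellTiter-Fluor fluorescence after 30 min in the same wells as the luciferase read.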

[4] = target: Peroxisome proliferator-activated receptor gamma (Homo sapiens) (UniProt P37231); assay: qHTS assay to identify small molecule antagonists of the peroxisome proliferator-activated receptor gamma (PPARg) signaling pathway (AID 743191; calls by dose curve; note: nearly all actives have a fitted effect of over 30% in size; for ratio activity, negative = inhibition: % is set by controls: 0 for no effect and ±100 for the full control effect); settings: HEK293H PPARg-UAS-bla, beta-lactamase ratio, antagonist, 17 h; ratio activity, negative = inhibition: at 62.6 µM (top of the series) unless noted
Sequence of UniProt P37231 (P37231 whole entry, looked up): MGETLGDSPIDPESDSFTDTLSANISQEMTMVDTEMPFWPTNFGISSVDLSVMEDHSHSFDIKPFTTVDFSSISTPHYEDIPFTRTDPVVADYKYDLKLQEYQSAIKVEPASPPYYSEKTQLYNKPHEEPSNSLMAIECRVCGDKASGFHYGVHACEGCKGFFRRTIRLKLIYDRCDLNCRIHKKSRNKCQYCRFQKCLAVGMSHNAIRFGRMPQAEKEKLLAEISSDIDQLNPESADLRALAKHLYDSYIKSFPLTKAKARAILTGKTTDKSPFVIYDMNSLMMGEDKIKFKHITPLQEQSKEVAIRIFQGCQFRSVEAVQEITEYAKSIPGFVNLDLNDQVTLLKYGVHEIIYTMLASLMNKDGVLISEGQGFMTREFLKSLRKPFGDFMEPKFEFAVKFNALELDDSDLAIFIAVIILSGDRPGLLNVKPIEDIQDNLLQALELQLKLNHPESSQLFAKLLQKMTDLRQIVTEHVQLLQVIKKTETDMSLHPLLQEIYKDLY
Procedure, shortened: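 GeneBLAzer PPARg UAS-bla HEK293H cells, 5 h post-plating, exposed to compounds 17 h at 37C. LiveBLAzer B/G FRET substrate added for 1 h at room temperature; beta-lactamase reporter read by fluorescence intensity.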

[5] = qHTS assay to identify small molecule antagonists of the peroxisome proliferator-activated receptor gamma (PPARg) signaling pathway - cell viability counter screen (AID 743194); settings: PPARg-bla HEK293H viability, CellTiter-Glo luminescence, 17 h, co-treated with 50 nM rosiglitazone; activity change, negative = cytotoxicity: at 62.6 µM (top of the series); note: nearly all actives have a fitted effect of over 55% in size
Procedure, shortened: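 Cytotoxicity counter screen in PPARg-bla HEK293H cells, same wells as reporter assay. Compounds plus 50 nM rosiglitazone (final) for 17 h at 37 C, then viability read by CellTiter-Glo luminescence.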

[6] = qHTS assay for small molecule agonists of the antioxidant response element (ARE) signaling pathway - cell viability counter screen (AID 743203; calls by dose curve; note: nearly all actives have a fitted effect of over 55% in size); settings: ARE-bla HepG2 viability, CellTiter-Glo luminescence, 16 h; viability change, negative = cytotoxic: at 73.3 µM (top of the series)
Procedure, shortened: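 Compounds in DMSO were pinned onto ARE-bla HepG2 cells plated 5 hrs earlier at 2,000 cells/well. Sixteen hours later at 37C/5% CO2, CellTiter-Glo was added and luminescence measured after 30 min at room temperature.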

[7] = qHTS assay for small molecule activators of the heat shock response signaling pathway - cell viability counter screen (AID 743209); settings: HSE-bla HeLa viability, CellTiter-Glo luminescence, 5 h; activity change, negative = cytotoxicity: at 62.6 µM (top of the series); note: nearly all actives have a fitted effect of over 50% in size
Procedure, shortened: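 Counter screen for cytotoxicity in HeLa HSE-bla reporter cells. Treatment was 5 h at 37 C; viability was detected by luminescent ATP assay (CellTiter-Glo) in the same wells as the beta-lactamase read.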

[8] = qHTS assay for small molecule activators of the heat shock response signaling pathway (AID 743210; active = well fitted activation curve with a large enough effect in the signal ratio in the repeat runs, with a control signal flat, not every such curve was filed as active; inconclusive = weak or mixed curves; the % refers to the signal ratio); settings: HeLa HSE-bla reporter, beta-lactamase ratio, 5 h; activation: at 62.6 µM (top of the series)
Procedure, shortened: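 HSE-bla HeLa cells (beta-lactamase reporter under heat shock response elements), plated overnight, then exposed to compounds 5 h at 37 C; LiveBLAzer B/G FRET substrate added, 2.5 h at room temperature, fluorescence intensity read.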

[9] = target: Peroxisome proliferator-activated receptor delta (Homo sapiens) (UniProt Q03181); assay: qHTS assay to identify small molecule agonists of the peroxisome proliferator-activated receptor delta (PPARd) signaling pathway (AID 743212; calls by dose curve; for activation: % is set by controls: 0 for no effect and ±100 for the full control effect); settings: HEK293H PPARd-UAS-bla, beta-lactamase FRET ratio, 17 h; activation: at 62.6 µM (top of the series) unless noted
Sequence of UniProt Q03181 (Q03181 whole entry, looked up): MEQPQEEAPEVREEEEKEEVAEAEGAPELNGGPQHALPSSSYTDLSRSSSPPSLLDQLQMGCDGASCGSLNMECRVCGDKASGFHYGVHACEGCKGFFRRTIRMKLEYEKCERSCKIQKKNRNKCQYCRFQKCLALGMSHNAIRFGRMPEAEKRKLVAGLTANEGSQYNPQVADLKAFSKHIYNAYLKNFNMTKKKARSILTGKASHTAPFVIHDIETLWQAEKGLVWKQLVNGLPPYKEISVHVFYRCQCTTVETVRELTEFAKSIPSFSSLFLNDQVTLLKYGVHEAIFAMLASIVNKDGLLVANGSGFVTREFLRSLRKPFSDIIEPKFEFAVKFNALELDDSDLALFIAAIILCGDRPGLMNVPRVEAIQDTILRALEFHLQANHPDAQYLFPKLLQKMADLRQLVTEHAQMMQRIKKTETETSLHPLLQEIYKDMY
Procedure, shortened: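 GeneBLAzer UAS-bla HEK293H cells carrying a PPARδ construct were exposed to compounds at 37 °C. Beta-lactamase activity was read by FRET fluorescence after 2 h at room temperature with LiveBLAzer B/G substrate.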

[10] = qHTS assay to identify small molecule antagonists of the peroxisome proliferator-activated receptor delta (PPARd) signaling pathway - cell viability counter screen (AID 743213); settings: PPARd-bla HEK293H viability, CellTiter-Glo luminescence, 17 h; viability change, negative = cytotoxic: at 62 µM (top of the series) unless noted; note: nearly all actives have a fitted effect of over 50% in size
Procedure, shortened: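 HEK293H PPARd UAS-bla cells, 5 h pre-incubation, compound + L165041 300 nM final, 17 h 37 C; B/G FRET substrate 2 h RT; then CellTiter-Glo 30 min RT, luminescence.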

[11] = target: Peroxisome proliferator-activated receptor delta (Homo sapiens) (UniProt Q03181); assay: qHTS assay to identify small molecule antagonists of the peroxisome proliferator-activated receptor delta (PPARd) signaling pathway (AID 743215; active = well fitted inhibition curve with a large enough effect in the signal ratio in the repeat runs, not every such curve was filed as active; inconclusive = weak or mixed curves, or effect the other way; inactive = no such curve, though single readings can be large or run the other way; the % refers to the signal ratio;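 note: cells stimulated with agonist L165041 at 300 nM final during compound exposure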); settings: HEK293H PPARd-UAS-bla, beta-lactamase FRET ratio, antagonist, 17 h; ratio activity, negative = inhibition: at 62 µM (top of the series) unless noted
Procedure, shortened: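 With L165041 present at 300 nM final, compounds were incubated 17 h at 37 C on PPARd UAS-bla HEK293H cells. A FRET-based beta-lactamase substrate was then applied for 2 h at room temperature and fluorescence intensity recorded.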

[12] = target: Bile acid receptor (Homo sapiens) (UniProt Q96RI1); assay: qHTS assay to identify small molecule antagonists of the farnesoid-X-receptor (FXR) signaling pathway (AID 743217; active = well fitted inhibition curve with a large enough effect in the signal ratio in the repeat runs, not every such curve was filed as active; inconclusive = weak or mixed curves, or effect the other way; inactive = no such curve, though single readings can be large or run the other way; the % refers to the signal ratio); settings: HEK293T FXR-UAS-bla, beta-lactamase ratio, CDCA-stimulated, 16 h; activity change, negative = inhibition: at 62.6 µM (top of the series) unless noted
Sequence of UniProt Q96RI1 (Q96RI1 whole entry, looked up): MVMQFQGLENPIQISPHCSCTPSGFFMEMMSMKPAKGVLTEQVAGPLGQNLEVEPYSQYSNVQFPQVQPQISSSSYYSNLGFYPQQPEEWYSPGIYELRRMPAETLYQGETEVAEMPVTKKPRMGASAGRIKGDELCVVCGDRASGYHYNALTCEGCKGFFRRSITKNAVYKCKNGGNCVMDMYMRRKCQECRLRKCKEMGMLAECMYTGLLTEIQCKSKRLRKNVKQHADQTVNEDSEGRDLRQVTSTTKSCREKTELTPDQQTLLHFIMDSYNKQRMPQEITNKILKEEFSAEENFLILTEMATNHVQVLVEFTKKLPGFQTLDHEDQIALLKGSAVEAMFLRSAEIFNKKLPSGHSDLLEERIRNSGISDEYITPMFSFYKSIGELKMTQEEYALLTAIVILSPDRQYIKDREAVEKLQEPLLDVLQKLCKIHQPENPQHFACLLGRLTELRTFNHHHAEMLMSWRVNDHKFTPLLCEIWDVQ
Procedure, shortened: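 In this cell-based antagonist screen, inhibition of CDCA-driven (50 uM final) UAS-beta-lactamase expression in HEK 293T cells was measured by FRET fluorescence following 16 h compound exposure at 37 °C.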

[13] = qHTS assay to identify small molecule agonists of the farnesoid-X-receptor (FXR) signaling pathway - cell viability counter screen (AID 743218); settings: FXR-bla HEK293T viability, CellTiter-Glo luminescence, 16 h; viability change, negative = cytotoxic: at 62.6 µM (top of the series) unless noted; note: nearly all actives have a fitted effect of over 45% in size
Procedure, shortened: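 After 16 h at 37 C with test compounds, FXR-bla HEK 293T cells were given LiveBLAzer B/G substrate for 2 h at RT and then CellTiter-Glo; luminescence was taken after 30 min.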

[14] = target: Bile acid receptor (Homo sapiens) (UniProt Q96RI1); assay: qHTS assay to identify small molecule agonists of the farnesoid-X-receptor (FXR) signaling pathway (AID 743220; active = well fitted activation curve with a large enough effect in the signal ratio in the repeat runs, not every such curve was filed as active; inconclusive = weak or mixed curves, or effect the other way; the % refers to the signal ratio; for activation: % is set by controls: 0 for no effect and ±100 for the full control effect); settings: HEK293T FXR-UAS-bla, beta-lactamase FRET ratio, 16 h; activation: at 62.6 µM (top of the series) unless noted
Procedure, shortened: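 Beta-lactamase reporter under UAS control in GeneBLAzer FXR HEK 293T cells (5000/well) measured with LiveBLAzer FRET substrate after 2 h at room temperature. Compound exposure lasted 16 h at 37C.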

[15] = qHTS assay to identify small molecule antagonists of the farnesoid-X-receptor (FXR) signaling pathway - cell viability counter screen (AID 743221; active = well fitted cell-killing curve with a large enough effect in the repeat runs, not every such curve was filed as active; inconclusive = weak or mixed curves, or effect the other way; inactive = no such curve, though single readings can be large or run the other way; note: nearly all actives have a fitted effect of over 50% in size); settings: FXR-bla HEK293T viability, CellTiter-Glo luminescence, 16 h; activity change, negative = cytotoxicity: at 62.6 µM (top of the series)
Procedure, shortened: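 FXR-UAS-bla HEK 293T cells were treated with test compounds plus chenodeoxycholic acid (50 uM final) for 16 h at 37 C. Cell viability in the same wells was then read as CellTiter-Glo luminescence after 30 min at room temperature.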

[16] = target: Vitamin D3 receptor (Homo sapiens) (UniProt P11473); assay: qHTS assay to identify small molecule agonists of the vitamin D receptor (VDR) signaling pathway (AID 743222; calls by dose curve; for activation: % is set by controls: 0 for no effect and ±100 for the full control effect); settings: HEK293T VDR-UAS-bla, beta-lactamase FRET ratio, 16 h; activation: at 63.5 µM (top of the series) unless noted
Sequence of UniProt P11473 (P11473 whole entry, looked up): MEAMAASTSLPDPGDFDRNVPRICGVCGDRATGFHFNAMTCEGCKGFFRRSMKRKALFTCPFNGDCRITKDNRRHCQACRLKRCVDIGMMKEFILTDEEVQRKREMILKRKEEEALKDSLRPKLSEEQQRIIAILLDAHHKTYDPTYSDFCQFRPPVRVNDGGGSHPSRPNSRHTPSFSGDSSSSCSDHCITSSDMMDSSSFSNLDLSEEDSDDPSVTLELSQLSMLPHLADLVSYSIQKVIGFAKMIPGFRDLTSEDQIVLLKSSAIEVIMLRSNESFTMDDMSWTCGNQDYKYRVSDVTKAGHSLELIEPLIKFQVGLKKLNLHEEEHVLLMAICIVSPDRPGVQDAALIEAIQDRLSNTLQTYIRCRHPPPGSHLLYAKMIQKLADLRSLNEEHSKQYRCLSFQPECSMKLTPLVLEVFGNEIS
Procedure, shortened: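 VDR-bla cells were seeded, left 4 h, treated with compounds in DMSO for 16 h, incubated 2 h at RT with B/G FRET substrate, and read for fluorescence.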

[17] = target: Peroxisome proliferator-activated receptor gamma (Homo sapiens) (UniProt P37231); assay: qHTS assay to identify small molecule agonists of the peroxisome proliferator-activated receptor gamma (PPARg) signaling pathway (AID 743094; active = well fitted activation curve with a large enough effect in the signal ratio in the repeat runs, not every such curve was filed as active; inconclusive = weak or mixed curves, or effect the other way; inactive = no such curve, though single readings can be large or run the other way; the % refers to the signal ratio); settings: HEK293H PPARg-UAS-bla, beta-lactamase FRET ratio, 17 h; activation: at 57 µM (top of the series) unless noted
Procedure, shortened: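 Following 5 h plating at 37C, PPARg-bla HEK293H cells receive compound or DMSO for 17 h; fluorescence intensity is recorded after LiveBLAzer B/G loading for 1 h at room temperature.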

[18] = qHTS assay for small molecule agonists of the antioxidant response element (ARE) signaling pathway (AID 743202; active = well fitted activation curve with a large enough effect in the signal ratio in the repeat runs, not every such curve was filed as active; inconclusive = weak or mixed curves, or effect the other way; inactive = no such curve, though single readings can be large or run the other way; the % refers to the signal ratio); settings: HepG2 ARE-bla reporter, beta-lactamase FRET, 16 h; activation: at 73.3 µM (top of the series) unless noted
Procedure, shortened: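 ARE-bla HepG2 cells (beta-lactamase reporter under the antioxidant response element), plated 5 hours, then exposed to compounds 16 hours at 37 C. LiveBLAzer B/G FRET substrate added for 2 hours at room temperature; fluorescence intensity read.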

[19] = target: Vitamin D3 receptor (Homo sapiens) (UniProt P11473); assay: qHTS assay to identify small molecule antagonists of the vitamin D receptor (VDR) signaling pathway (AID 743223; active = well fitted inhibition curve with a large enough effect in the signal ratio in the repeat runs, not every such curve was filed as active; inconclusive = weak or mixed curves, or effect the other way; inactive = no such curve, though single readings can be large or run the other way; the % refers to the signal ratio); settings: VDR-UAS-bla HEK293T, beta-lactamase FRET ratio, 16 h; activity change, negative = inhibition: at 61 µM (top of the series) unless noted
Procedure, shortened: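 VDR-bla cells were plated, incubated 4 h at 37C, then given compound and 1alpha,25-dihydroxyvitamin D3 (3 nM final). After 16 h at 37C, LiveBLAzer B/G FRET substrate was added for 2 h at room temperature and fluorescence read.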
Potency is the fitted concentration of half-maximal effect; tags give direction and shape of the fitted curve or compound fluorescence and quenching.

CN(C)c1ccc(C(=C2C=CC(=[N+](C)C)C=C2)c2ccc(N(C)C)cc2)cc1
Potency [1]: active: 10.6 µM and active: 3.05 µM and active: 7.7 µM
Potency [2]: inconclusive: 2.37 µM [activator, partial curve] and inconclusive: 2.73 µM [activator]
Potency [3]: active: 9.44 µM and active: 19.2 µM and active: 24.3 µM
Potency [4]: inconclusive: 38.7 µM [cytotoxic, partial curve] and inconclusive: 61.6 µM [cytotoxic, single point]
ratio activity, negative = inhibition [4]: inconclusive: -36.6%
Potency [5]: active: 1.94 µM and active: 1.95 µM and active: 5.96 µM
Potency [6]: active: 9.64 µM and active: 10.9 µM and active: 11.9 µM
Potency [7]: active: 1.73 µM and active: 4.36 µM and active: 6.68 µM
Potency [8]: inconclusive: 23.5 µM and inconclusive: 26.5 µM and inconclusive: 24.6 µM
activation [9]: inconclusive: 20.6%
Potency [10]: active: 17.3 µM and active: 17.4 µM and active: 6.68 µM
Potency [11]: inconclusive: 54.7 µM [cytotoxic, single point] and inconclusive: 61.6 µM [cytotoxic, partial curve, poor fit] and inconclusive: 13.3 µM [inhibitor]
Potency [12]: inconclusive: 61.4 µM [cytotoxic, single point] and inconclusive: 21.9 µM and active: 16.8 µM
Potency [13]: active: 10.9 µM and active: 19.5 µM and active: 10.6 µM
Potency [14]: inconclusive: 48.7 µM [cytotoxic, partial curve] and inconclusive: 54.9 µM and inactive
Potency [15]: active: 21.8 µM and active: 27.5 µM and active: 13.3 µM
Potency [16]: inconclusive: 29.8 µM [inhibitor, partial curve]
activation [16]: inconclusive: 23.4%

C=CC(=O)OCCOCC(CC)(COCCOC(=O)C=C)COCCOC(=O)C=C
Potency [1]: active: 2.84 µM
Potency [3]: active: 71.4 µM
Potency [17]: inconclusive: 16.1 µM [fluorescent, full curve]
Potency [4]: inconclusive: 28.7 µM [full curve]
Potency [5]: inconclusive: 22.8 µM [cytotoxic, full curve]
Potency [18]: inconclusive: 1.01 µM [falling, partial curve, poor fit]
Potency [7]: active: 18.1 µM
Potency [9]: inconclusive: 32.2 µM [full curve]
Potency [10]: active: 36.1 µM
Potency [11]: inconclusive: 22.8 µM [rising, full curve]
Potency [12]: inconclusive: 40.5 µM [rising, partial curve]
Potency [13]: active: 51 µM
Potency [14]: inconclusive: 64.3 µM [rising, single point]
Potency [15]: active: 51 µM
Potency [16]: inconclusive: 28.7 µM
Potency [19]: inconclusive: 45.5 µM [rising, partial curve]

Source: PubChem BioAssay (Tox21)
